39 compounds from PubChem BioAssay AID1479 (National Center for Advancing Translational Sciences (NCATS), 2009) can be followed below.

Among all 280,000 compounds or so, about 820 (0.29%) were called active. Roughly 1% stayed inconclusive and do not appear here. Calls come from the whole dose curve; as a rule, active = well fitted curve in either direction with a large enough effect; inconclusive = small, poorly fitted or top-dose-only effect; inactive = flat fitted curve, though single readings scatter. The entries are a selection whose mix differs from that of the whole data set. The source holds several records for some structures; these can differ, active in one and inactive in another.
% is set by controls: 0 for no effect and ±100 for the full control effect; potency is the fitted concentration of half-maximal effect; tags give direction and shape of the fitted curve or compound fluorescence and quenching.

A short description of the experiment: Total Fluorescence Counterscreen for Inhibitors of the Interaction of Thyroid Hormone Receptor and Steroid Receptor Coregulator 2. The following applies: TRb/SRC2 Texas Red total fluorescence interference; series mostly up to 106 µM; fluorescence change, negative = quenching: at the top concentration. An excerpt:
NIH Molecular Libraries Probe Production Network [MLPCN]
NIH Chemical Genomics Center [NCGC]
Assay Provider: R. Kip Guy, St. Jude Children's Research Hospital
Thyroid receptor (TR) regulates many homeostatic processes including basal metabolism, cardiovascular function, body weight, and lipid trafficking. TR modulators are potential therapeutics for obesity and hyperlipidemias but current thyroid analogs have undesirable side effects, particularly cardiac stimulation. To identify inhibitors that specifically prevent the interaction of TR with the steroid receptor […] 2 (SRC2), a fluorescence polarization assay was screened. This assay detects interaction of the ligand-binding domain of human TRb with a Texas Red labeled SRC2 peptide, corresponding to a 20 amino acid region of the nuclear receptor interaction domain (Arnold et al., 2006). Total fluorescence (555 nm excitation and 632 nm emission) was measured to identify potential fluorescent and light absorbing compounds. Such compounds may be artifacts that interfere with the fluorescence polarization assay.
Arnold, L. A.; Estebanez-Perpina, E.; Togashi, M.; Shelat, A.; Ocasio, C. A.; McReynolds, A. C.; Nguyen, P.; Baxter, J. D.; Fletterick, R. J.; Webb, P.; Guy, R. K. A high-throughput screening method to identify small molecule inhibitors of thyroid hormone receptor coactivator binding. Sci STKE 2006, p 13.
NCGC Assay Protocol Summary:
For screening, 5 uL/well 0.6 uM TRb and 20 nM SRC2 Texas Red in protein buffer (20mM Tris hydrochloride, 100mM NaCl, 10% glycerol, 1mM EDTA, 0.01% NP-40, 1mM DTT, 1uM T3 and 5% DMSO) was dispensed into black solid 1536-well plates (Grenier) using a solenoid-based dispenser. Following transfer of 23 nL compound or DMSO vehicle by a pin tool, the plates were centrifuged 15 s at 1000 RPM and incubated 5 hr at ambient temperature. The plates were read by an Envision (Perkin Elmer) to detect fluorescence polarization of SRC2 Texas Red (555 nm excitation and 632 nm emission). Data were normalized to unbound (all components except TRb) and bound SRC2 Texas Red controls. Total fluorescence (TF) was calculated as follows: TF = S + 2P where S and P are fluorescence readings in the parallel and perpendicular channels, respectively.
Keywords: NIH Roadmap, MLPCN, MLI, MLSMR, qHTS, NCGC, qHTS, thyroid hormone receptor, steroid receptor coactivator, fluorescence polarization
As to `O=C1C[C@@H]2CCN3C(=O)CCC[C@@H]([C@H]23)[C@@H]1Cc1ccccc1`, the “fluorescence change, negative = quenching” value (from here on “fluorescence change”) is inactive: 1.84%.

For the compound `O=C(O)c1cc(O)c2c(c1)[C@H]([C@H]1c3cc(C(=O)O)cc(O)c3C(=O)c3c(O[C@@H]4OC(CO)C(O)C(O)C4O)cccc31)c1cccc(O[C@@H]3OC(CO)C(O)C(O)C3O)c1C2=O` (some centres undefined), the Potency is active: 22.4 µM [quencher].

`CC(NC(=O)/C(=C\c1cccc([N+](=O)[O-])c1)NC(=O)c1ccco1)C(=O)O` (centres undefined): the “fluorescence change” value was inactive: -3.76%.

Take `Cc1ccc(NC(=O)CSc2nc(C)c(Cc3ccccc3)c(=O)[nH]2)cc1C`: the “fluorescence change” value is inactive: -0.944%.

As for `O=C1c2c(O)cccc2Cc2cccc(O)c21`, the “fluorescence change” value is inactive: -6.83%.

In the case of `Cc1cccc(Oc2nc3c(c(=O)n(C)c(=O)n3C)n2C)c1`, the “fluorescence change” value was inactive: -1.12%.

With `COc1ccc(C(=O)COC(=O)CCN2C(=O)C3C4CC(C(Br)C4Br)C3C2=O)cc1` (centres undefined), the “fluorescence change” value is inactive: 0.441%.

`Cc1cccc(NC(=O)CCn2cnnn2)c1`: the “fluorescence change” value was inactive: -0.662%.

As for `N[C@@H](CS(=O)O)C(=O)O`, the Potency entry is “inactive”.

For the compound `Cc1cc(C)cc(NC(=O)CSc2nc3c(c(=O)[nH]2)CN(Cc2ccc(F)cc2)CC3)c1`, the “fluorescence change” value is inactive: -0.992%.

Turning to `N#C/C(=C\c1ccc(N2CCOCC2)o1)C(=O)N1CCOCC1`, the “fluorescence change” value is inactive: 0.512%.

Turning to `Cc1cc(O)c(C=O)c2c1C(=O)Oc1c(CO)c(O)c3c(c1O2)C(O)OC3=O` (centres undefined), the Potency was active: 11.2 µM [quencher].

As to `OCCN(CCO)c1nc(N2CCCCC2)c2nc(N(CCO)CCO)nc(N3CCCCC3)c2n1`, the Potency entry is “inactive”.

As to `COc1ccccc1CNc1nc2nc(C)c(Cl)c(C)n2n1`, the Potency was active: 0.0224 µM [quencher].

Turning to `O=C(O)[C@@H]1C[C@H](C(=O)O)N1`, the “fluorescence change” value is inactive: -3.3%.

`NS(=O)(=O)c1cc2c(cc1Cl)NC(C1CC3C=CC1C3)NS2(=O)=O` (centres undefined): the “fluorescence change” value was inactive: -0.923%.

As for `O=c1oc2c(O)c(O)cc3c(=O)oc4c(O)c(O)cc1c4c23`, the “fluorescence change” value is inactive: -12.5%.

Regarding `O=C(NCC(c1cccnc1)N1CCc2ccccc2C1)C(=O)Nc1ccc(F)cc1F` (centres undefined), the Potency is active: 2.82 µM [quencher].

Turning to `COc1cccc2c1C(=O)c1c(O)c3c(c(O)c1C2=O)C[C@@](O)(C(C)=O)C[C@@H]3O[C@H]1C[C@H](N)[C@H](O)[C@H](C)O1`, the “fluorescence change” value was inactive: -3.62%.

In the case of `COC(=O)C1=C(C)N(Cc2ccccc2)[C@]23O[C@](C(=O)OC)(C(=O)N2C1c1ccccc1)C1CCCC(=O)C13` (some centres undefined), the fluorescence change, negative = quenching was inactive: -4.45% [at 11.2 µM].

For the compound `OCC1NCC(O)C(O)C1O` (centres undefined), the “fluorescence change” value is inactive: 2.45%.

In the case of `O=C(NCCc1ccccc1)c1nnc(Cc2cccc(F)c2)o1`, the Potency is active: 0.0056 µM [quencher].

Take `CC(=O)O[C@H]1C(=O)[C@@]2(C)[C@H]([C@H](OC(=O)c3ccccc3)[C@]3(O)C[C@H](OC(=O)[C@H](O)[C@@H](NC(=O)c4ccccc4)c4ccccc4)C(C)=C1C3(C)C)[C@]1(OC(C)=O)CO[C@@H]1C[C@@H]2O`: the Potency result was “inactive”.

Regarding `C[C@@]12C=Cc3occc3[C@H]1CC[C@@]13C[C@@H](CC[C@H]12)[C@@](O)(CO)C3`, the “fluorescence change” value was inactive: -11.1%.

`O=C(COC(=O)c1ccccc1NS(=O)(=O)c1cccs1)NC1CCCCC1`: the Potency was active: 112 µM [quencher].

As for `COc1cc(-c2nc3sccn3c2Nc2c(C)cccc2C)ccc1O`, the Potency is active: 0.004 µM [quencher].

Take `Cc1cc2c(cc1NS(=O)(=O)c1ccc(Br)cc1)n(C)c(=O)c(=O)n2C`: the Potency is active: 2240 µM [quencher].

As to `CCCc1cc(=O)[nH]c(SCC(=O)N2CCN(c3ccccc3)CC2)n1`, the “fluorescence change” value was inactive: 0.0118%.

Turning to `COc1c(O)cc2oc(-c3ccc(O)c(O)c3)cc(=O)c2c1O`, the “fluorescence change” value was inactive: -22%.

`CN1C(=O)C(Cc2c[nH]c3ccccc23)NC1=S` (centres undefined): the “fluorescence change” value was inactive: -1.13%.

In the case of `CCCn1c2ccccc2c2cnn(CC(=O)Nc3cc(C)c(Cl)cc3OC)c(=O)c21`, the Potency is active: 20 µM [quencher].

On to `O=c1cc(-c2ccccc2)oc2cc(O)c(O)c(O)c12`, for which the Potency entry was “inactive”.

As to `COc1ccc(-n2c(=O)c3c(C)c(C)sc3n(Cc3ccc(F)cc3)c2=O)c(OC)c1`, the “fluorescence change” value was inactive: -0.645%.

Consider `O=C(CSc1nnc(SCc2ccccc2)s1)N/N=C/C=C\c1ccco1`, for which the “fluorescence change” value was inactive: -21.2%.

For `CC(=O)N[C@@H](CS)C(=O)O`, the Potency result is “inactive”.

On to `CCN(CC)c1cccc(OC2=NS(=O)(=O)c3ccccc32)c1`, for which the Potency was active: 44.7 µM [fluorescent].

With `Cc1nn(C)c2c1c(C(F)(F)F)cc(=O)n2C(C)C(=O)NCc1ccccc1Cl` (centres undefined), the Potency was active: 316 µM [quencher].

`Nc1nc2nc(-c3ccc(Cl)cc3)cc(C(F)(F)F)n2n1`: the “fluorescence change” value is inactive: -0.814%.

In the case of `COc1ccccc1NC(=O)c1sc2nc(-c3cc4cc(Cl)ccc4oc3=O)[nH]c(=O)c2c1C`, the Potency is active: 17.8 µM [quencher].
